Laboratory results taken from PubChem BioAssay AID504332 (National Center for Advancing Translational Sciences (NCATS), 2011).
In all, about 350,000 compounds went through this assay and about 31,000 (8.9%) were called active. The shares of active, inactive and inconclusive entries below differ from those in the screen. Calls follow the shape of the dose curve; as a rule, active = well fitted inhibition curve with a large enough effect; inconclusive = small, poorly fitted or top-dose-only effect; inactive = no such curve, though single readings can be large or run the other way. Potencies of inconclusive entries are doubtful fits and often do not repeat.

What follows are molecules tested against Histone-lysine N-methyltransferase EHMT2 (Homo sapiens) (UniProt Q96KQ7) (assay: qHTS Assay for Inhibitors of Histone Lysine Methyltransferase G9a). Conditions: G9a H3K9 monomethylation, AlphaScreen, 2 h; activity, negative = inhibition: at 59 µM (top of the series) unless noted.
How it was run: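 Quantitative HTS format: methyltransferase activity on a biotin-tagged H3K9 peptide is measured by AlphaScreen, using a rabbit anti-monomethyl-H3K9 antibody with streptavidin donor and anti-IgG acceptor beads. Final levels are 20 nM enzyme, 500 nM peptide, 20 uM SAM; 2 h RT.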
% is scaled to controls: 0 for no effect and ±100 for the full control effect; potency is read from the fitted curve at half-maximal effect; tags tell the direction and shape of the fitted curve.
Also: nearly all actives have a fitted effect of over 75% in size.

UniProt Q96KQ7, sequence (Q96KQ7 whole entry, looked up): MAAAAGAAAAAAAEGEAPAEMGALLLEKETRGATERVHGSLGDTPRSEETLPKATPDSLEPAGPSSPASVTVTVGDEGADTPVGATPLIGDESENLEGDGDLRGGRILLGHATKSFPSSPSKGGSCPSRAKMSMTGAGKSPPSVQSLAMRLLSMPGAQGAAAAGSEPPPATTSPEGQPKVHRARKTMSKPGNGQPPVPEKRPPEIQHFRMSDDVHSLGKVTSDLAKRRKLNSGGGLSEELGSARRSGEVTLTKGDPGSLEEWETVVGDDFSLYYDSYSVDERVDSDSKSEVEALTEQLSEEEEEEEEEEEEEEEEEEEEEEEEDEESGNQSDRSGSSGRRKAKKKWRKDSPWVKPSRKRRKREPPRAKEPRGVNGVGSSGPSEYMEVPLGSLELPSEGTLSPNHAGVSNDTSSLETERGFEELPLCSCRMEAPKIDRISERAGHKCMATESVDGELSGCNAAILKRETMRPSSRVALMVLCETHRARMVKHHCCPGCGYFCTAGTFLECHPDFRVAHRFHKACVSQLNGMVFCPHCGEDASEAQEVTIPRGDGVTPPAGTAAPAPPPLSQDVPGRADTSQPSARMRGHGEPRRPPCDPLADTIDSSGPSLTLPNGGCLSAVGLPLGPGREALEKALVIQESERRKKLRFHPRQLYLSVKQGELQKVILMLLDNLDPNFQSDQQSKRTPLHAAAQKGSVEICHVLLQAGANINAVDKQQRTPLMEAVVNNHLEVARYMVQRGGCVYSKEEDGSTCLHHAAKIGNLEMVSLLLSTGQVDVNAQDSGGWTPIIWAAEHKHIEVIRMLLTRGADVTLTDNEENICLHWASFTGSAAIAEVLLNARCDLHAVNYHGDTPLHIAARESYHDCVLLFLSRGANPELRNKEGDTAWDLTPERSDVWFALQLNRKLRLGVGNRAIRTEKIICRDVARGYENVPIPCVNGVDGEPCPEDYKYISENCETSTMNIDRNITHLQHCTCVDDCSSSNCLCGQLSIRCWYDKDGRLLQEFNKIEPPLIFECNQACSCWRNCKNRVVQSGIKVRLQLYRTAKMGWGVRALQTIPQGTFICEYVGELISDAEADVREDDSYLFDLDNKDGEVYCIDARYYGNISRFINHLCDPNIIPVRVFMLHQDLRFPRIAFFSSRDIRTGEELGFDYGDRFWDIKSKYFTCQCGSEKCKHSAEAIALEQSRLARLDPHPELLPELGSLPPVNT

Compound	Potency	activity, negative = inhibition
O=C(O)c1cnn(-c2nc(-c3ccc(Cl)c(Cl)c3)cs2)c1C(F)(F)F	inconclusive: 44.7 µM [inhibitor, partial curve, poor fit]	–
O=C1c2cccc3cccc(c23)C(=O)N1CCN1CCN(CC(O)COCc2ccc(Cl)cc2)CC1 (stereo unspecified)	inconclusive: 39.8 µM [inhibitor, single point]	–
CC(C)c1nc(CNC(=O)C2CCC(=O)N(CCc3cccc(F)c3)C2)cs1 (stereo unspecified)	inconclusive: 28.2 µM [inhibitor, partial curve, poor fit]	–
N#Cc1c(-c2ccccc2)[nH]c(=S)[nH]c1=O	–	inactive: -42.2% [at 12.7 µM]
CC(C)C(=O)Nc1nnc(-c2ccccc2)o1	inconclusive: 8.91 µM [inhibitor, full curve, poor fit]	–
O=C(CSc1nnc(C2COc3ccccc3O2)o1)N1CCCC1 (stereo unspecified)	active: 8.91 µM	–
O=c1c2cc3c(cc2[nH]c(=S)n1C1CCN(Cc2ccccc2)CC1)OCO3	inconclusive: 8.91 µM [inhibitor, partial curve, poor fit]	–
O=c1c2cnn(-c3ccc(Cl)cc3)c2ncn1Cc1cccc(C(F)(F)F)c1	inactive	–
O=C(NCCSc1ccccc1)c1ccccc1	–	inactive: -2.96% [at 12.7 µM]
CCSc1nnc(NC(=O)CN2C(=O)N(C)C3(CCCCC3)C2=O)s1	inconclusive: 89.1 µM [inhibitor, partial curve, poor fit]	–
CCN1CCN(c2c(S(=O)(=O)c3ccc(C)c(C)c3)cnc3ccc(F)cc23)CC1	inconclusive: 22.4 µM [inhibitor, partial curve, poor fit]	–
COc1cccc(-c2csc(N3CCN(C(=S)Nc4ccc(Cl)cc4)CC3)n2)c1	inconclusive: 12.6 µM [inhibitor, partial curve, poor fit]	–
COC(=O)c1c(C)nc(C)c(C(=O)OC)c1-c1ccc(OC)c(OC)c1	inactive	–
Cc1noc(C)c1-c1nccc(NCCN2CCOCC2)n1	–	inactive: -2.04% [at 0.501 µM]
CCCn1c(NCc2ccc(N(CC)CC)cc2)nc2ccccc21	inconclusive: 28.2 µM [inhibitor, single point]	–
CCOC(=O)C1=C(CCc2ccccc2)NC(=O)NC1c1ccc(Br)cc1 (stereo unspecified)	inconclusive: 70.8 µM [inhibitor, partial curve]	–
CN(C)/C=C/C=C1C(=O)CCCC1=O	inconclusive: 39.8 µM [inhibitor, single point]	–
CCOC(=O)C1CCN(C(=O)C2CCN(S(=O)(=O)c3cc(Cl)ccc3Cl)CC2)CC1	inconclusive: 89.1 µM [inhibitor, single point]	–
O=C(Nc1ccc(N2CCOCC2)cc1)C1(S(=O)(=O)c2ccccc2)CC1	inconclusive: 0.891 µM [inhibitor, partial curve, poor fit]	–
Cc1cc(C(=O)COC(=O)C2=COCCO2)c(C)n1-c1ccc2c(c1)OCO2	inconclusive: 15.8 µM [inhibitor, partial curve, poor fit]	–
Cc1nnc(SC(C)C)n(N)c1=O	inconclusive: 89.1 µM [inhibitor, single point]	–

Compound	Potency	activity, negative = inhibition
COc1cc(O)c(C(=O)/C=C/c2ccc(O)c(OC)c2)c(OC)c1	–	inconclusive: -97.5% [inhibitor] [at 2.33 µM]
COc1cc(Nc2nc3ccc(Cl)cc3n3cnnc23)cc(OC)c1OC	inactive	–
O=S(=O)(NCCc1csc(-c2cccnc2)n1)c1cccs1	inconclusive: 28.2 µM [inhibitor, single point]	–
Cc1nc(Sc2nnnn2-c2ccccc2)c(C#N)c(C)c1C	inconclusive: 89.1 µM [inhibitor, single point]	–
COc1ccc(OC)c(-c2c3cc(O)c(=O)cc-3oc3cc(O)c(O)cc23)c1	active: 6.31 µM	–
CCOC(=O)c1cc(S(=O)(=O)Nc2c(C)cc(C)cc2C)[nH]n1	active: 17.8 µM	–
N#Cc1cc(S(=O)(=O)c2ccc(F)cc2)c(N)[nH]c1=O	inconclusive: 56.2 µM [inhibitor, partial curve]	–
C=CCc1cccc2cc(C(=O)Nc3ccc(S(=O)(=O)Nc4nnc(CC)s4)cc3)c(=O)oc12	inconclusive: 20 µM [inhibitor, single point]	–
O=C(Nc1ccccc1Br)c1cc(S(=O)(=O)NC2CCCCC2)ccc1F	inactive	–
CCCCn1c(CCC(=O)O)nc2cc(S(=O)(=O)N(CC)CC)ccc21	inconclusive: 3.98 µM [inhibitor, single point]	–
C[C@@H]1O[C@@H](OC[C@H]2O[C@@H](Oc3c(-c4ccc(O)c(O)c4)oc4cc(O)cc(O)c4c3=O)[C@H](O)[C@@H](O)[C@@H]2O)[C@H](O)[C@H](O)[C@H]1O	inconclusive: 10 µM [inhibitor, partial curve, poor fit]	–
CCCN(C(=O)c1ccc([N+](=O)[O-])c(C)c1)c1c(N)n(Cc2ccccc2)c(=O)[nH]c1=O	inconclusive: 0.355 µM [inhibitor, full curve, poor fit]	–
COC(=O)c1sccc1NC(=O)CSCCc1ccncc1	inconclusive: 100 µM [inhibitor, single point]	–
CC(NS(=O)(=O)c1ccc2c(c1)C(=O)c1cc(S(=O)(=O)NC(C)C(=O)O)ccc1-2)C(=O)O (stereo unspecified)	active: 28.2 µM	–
C/C(=N/NS(=O)(=O)c1ccc(C)cc1)[C@H]1C[C@@H]1c1ccccc1	active: 12.6 µM	–
O=C(CSc1nnc2c(n1)[nH]c1ccccc12)Nc1nncs1	inactive	–
COc1ccc(C2C(C(=O)Nc3cccnc3)=C(C)Nc3nc(SCc4ccccc4)nn32)cc1 (stereo unspecified)	inactive	–
Brc1ccc(Nc2c3c(nc4ncnn24)CCC3)cc1	inconclusive: 20 µM [inhibitor, single point]	–
N#Cc1ccccc1NC(=O)COC(=O)CSc1nc2ccccc2o1	inconclusive: 22.4 µM [inhibitor, full curve, poor fit]	–
CCOC(=O)N1CCN(c2ncc3c(n2)CC(c2ccc(Cl)cc2)CC3=O)CC1 (stereo unspecified)	inconclusive: 10 µM [inhibitor, partial curve, poor fit]	–
